Screen size: about 310,000 compounds; about 14,000 (4.5%) showed an effect of 50% or more. The effect is printed as a negative number. This is one part of the list.
These compounds were tested against human ether-à-go-go-related gene (hERG) potassium channel (human, UniProt Q12809) (assay: primary screen, population patch clamp on CHO cells stably expressing hERG).
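Also: peak tail current of the secondary pulse compared with the same well before compound.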

Chain of human ether-à-go-go-related gene (hERG) potassium channel (Q12809 whole entry, looked up): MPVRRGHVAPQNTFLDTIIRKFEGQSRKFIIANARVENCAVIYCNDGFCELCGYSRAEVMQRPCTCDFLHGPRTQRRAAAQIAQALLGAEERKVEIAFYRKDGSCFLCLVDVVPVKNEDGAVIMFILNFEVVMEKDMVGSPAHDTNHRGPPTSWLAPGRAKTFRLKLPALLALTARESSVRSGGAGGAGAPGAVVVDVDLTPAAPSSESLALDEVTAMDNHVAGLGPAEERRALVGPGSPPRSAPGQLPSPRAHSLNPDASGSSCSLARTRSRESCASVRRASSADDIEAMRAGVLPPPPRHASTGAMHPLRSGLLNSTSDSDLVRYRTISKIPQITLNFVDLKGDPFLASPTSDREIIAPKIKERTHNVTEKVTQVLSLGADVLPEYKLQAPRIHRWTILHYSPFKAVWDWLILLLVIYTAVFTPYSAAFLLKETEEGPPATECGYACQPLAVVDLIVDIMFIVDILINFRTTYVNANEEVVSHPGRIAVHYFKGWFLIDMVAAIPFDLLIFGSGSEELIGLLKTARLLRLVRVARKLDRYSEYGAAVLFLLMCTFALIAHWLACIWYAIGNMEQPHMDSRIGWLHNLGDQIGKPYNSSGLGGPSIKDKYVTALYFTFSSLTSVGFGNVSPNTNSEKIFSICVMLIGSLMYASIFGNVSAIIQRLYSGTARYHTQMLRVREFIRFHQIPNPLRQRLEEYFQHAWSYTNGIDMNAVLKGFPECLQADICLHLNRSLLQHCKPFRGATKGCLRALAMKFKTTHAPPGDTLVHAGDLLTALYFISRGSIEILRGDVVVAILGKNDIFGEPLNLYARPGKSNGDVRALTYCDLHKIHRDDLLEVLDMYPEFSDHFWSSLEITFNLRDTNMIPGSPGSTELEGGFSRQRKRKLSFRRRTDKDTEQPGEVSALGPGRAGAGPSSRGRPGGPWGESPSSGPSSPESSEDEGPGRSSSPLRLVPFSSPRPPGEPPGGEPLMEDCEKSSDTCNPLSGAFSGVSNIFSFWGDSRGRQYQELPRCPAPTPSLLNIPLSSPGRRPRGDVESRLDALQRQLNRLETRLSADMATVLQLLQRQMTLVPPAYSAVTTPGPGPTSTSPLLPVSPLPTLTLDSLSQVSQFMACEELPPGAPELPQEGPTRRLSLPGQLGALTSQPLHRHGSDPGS

Structure (SMILES)	hERG current change (%, negative = inhibition) at 10uM
CCOC(=O)c1c(C2CC2)csc1NC(=O)CSCc1c(C)noc1C	5.31%
CC(=O)N(Cc1cccnc1)Cc1cc2ccccc2[nH]c1=O	3.63%
CCOc1ccc(NS(=O)(=O)c2ccc(C(=O)N3CC(C)OC(C)C3)cc2)cc1 (stereo not shown)	6.77%
CC#CCN1c2ccccc2[C@]23C[C@@H](C(=O)OC)N(C(=O)OCC)C2=NC(C(=O)OC)=C(C(=O)OC)[C@H]13	3.42%
O=C(NCC1OCCCN1S(=O)(=O)c1cc(F)ccc1F)C(=O)NC1CCCCC1 (stereo not shown)	-3.8%
O=C(CCN1CCN(c2ccccn2)CC1)Nc1ccc(F)cc1	-42.5%
COc1ccc2nc(SCC(=O)Nc3cc(C)on3)[nH]c2c1	-6.41%
COc1cc(C(=O)N2CCC3(CC2)NCCc2[nH]cnc23)cc(OC)c1OC	22.9%
CN(Cc1ccccc1)C(=O)COC(=O)c1ccc2c(c1)OCO2	-5.37%
O=S(=O)(Cc1ccccc1)Cc1cnc(Cl)s1	0.628%
CCCCCCCC/C=C\CCCCCCCC(=O)NCCO	11.7%
COCCN(C(=O)c1ccccc1OC1CCN(S(C)(=O)=O)CC1)C(C)C	17.8%
Clc1ccc(-c2cc3ccccc3nc2N2CCCC2)cc1	3.51%
COc1ccc(C(=O)N2CCN(S(=O)(=O)c3ccc(F)cc3)CC2)cc1OC	10.9%
CC(=O)NC(CCS(C)(=O)=O)C(=O)Nc1cccc(Cl)c1Cl (stereo not shown)	22.6%
O=C(Nc1ccc(S(=O)(=O)N2CCOCC2)cc1)c1ccc2ncsc2c1	-8.88%
COc1ccc(-c2cc(-c3n[nH]c(=S)n3-c3cccc4ccccc34)[nH]n2)cc1	22%
CCNC(=O)COC(=O)C1CCC(=O)N(c2ccc(OC)cc2)C1c1ccc(OC)cc1 (stereo not shown)	-32.2%
CCOC(=O)N1CCN(S(=O)(=O)c2ccc(C)cc2)C1	9.88%
Cc1ccc(OCc2nnc(SC(C)C(=O)O)n2Cc2ccccc2)cc1 (stereo not shown)	11.4%
Cc1ccc(CNC(=O)CSCc2ccccc2)cc1	25.9%
Br.C=CCn1c(C)csc1=Nc1ccccc1C	4.02%

Structure (SMILES)	hERG current change (%, negative = inhibition) at 10uM
COc1ccccc1-n1c(O)c(C=NCCCn2ccnc2)c(=O)[nH]c1=O	9.22%
COc1cc(C(=O)OCc2ccc(C)cc2)cc(NC(=O)c2cccs2)c1OC	1.71%
CCN1CCN(c2ccc(S(=O)(=O)N3CCCCC3)cc2NC(=O)c2sccc2C)CC1	-71.4%
COc1ccc(C2=NS(=O)(=O)N(C)C(C(=O)Nc3ccc(C(C)=O)cc3)=C2)cc1OC	12.8%
CCCN1CCC(NC(=O)Nc2ccc(F)cc2F)CC1	4.33%
O=C(O)c1nn(CC(=O)N2CCC(Cc3ccccc3)CC2)c(=O)c2ccccc12	-8.78%
COc1cc(/C=C2/N=C(C3CCCCC3)OC2=O)cc(OC)c1OC	-17.5%
COc1ccc(/C=C/C(=O)Nc2cccc(S(=O)(=O)NC3=NCCCCC3)c2)c(OC)c1	-6.07%
O=c1[nH]c(O)c(C=Nc2cccc(F)c2)c(=O)[nH]1	18.1%
Cc1ccc(N2C(=O)c3ccccc3C2C(=O)c2ccc(O)cc2O)cc1 (stereo not shown)	-10.5%
CN(CCc1ccccn1)C(=O)CN(C)S(=O)(=O)c1ccc2c(c1)c(=O)n(C)c(=O)n2C	22.7%
CCOc1cc(N2CCOCC2)c(OCC)cc1NC(=O)c1ccccc1C	-2.01%
Cc1ccc(S(=O)(=O)N2CCc3c2cc([N+](=O)[O-])cc3[N+](=O)[O-])cc1	13.6%
Cc1ccc(O)c(C2=Nc3ccccc3N=C(c3ccc([N+](=O)[O-])cc3)C2)c1	14.4%
O=C(CSc1nnc2c(n1)[nH]c1ccccc12)Nc1nncs1	19.4%
COc1ccccc1-c1noc(CSc2nc(N)cc(=O)[nH]2)n1	13.4%
COc1ccc(N(CC(=O)Nc2ccccc2OC)S(=O)(=O)c2ccc(OC)c(OC)c2)cc1	-1.57%
C=CCN1CN(S(=O)(=O)c2cccc(Cl)c2)c2nc3ccccc3nc21	-1.97%
Cc1ccc(O)c(C(CC(=O)N2CCCC2)c2ccccc2)c1 (stereo not shown)	-18.9%
O=C(COc1ncnc2sccc12)N1CCN(c2ccccc2)CC1.O=C(O)C(=O)O	-32.3%
Cc1ccc2c(c1)SC1=NC(c3ccccc3)(C(F)(F)F)NC(=O)N12 (stereo not shown)	2.41%
COC(=O)C1=C(C)OC(N)=C(C#N)C1c1ccco1 (stereo not shown)	18.6%

Structure (SMILES)	hERG current change (%, negative = inhibition) at 10uM
Cc1cc(C)c2cc(C#N)c(SCC(=O)NCC3CCCO3)nc2c1 (stereo not shown)	-2.47%
COc1ccc2c(c1)cc1n2CCN=C1NCCO.Cl	-10.2%
COc1ccc(C(=O)OCCN2C(=O)c3ccccc3C2=O)cc1	-5.4%
COc1ccc(Cn2nnnc2C(c2ccc(N(C)C)cc2)N2CCC(C)CC2)cc1 (stereo not shown)	-2.19%
CCCCCN(C(=O)CCC(=O)OCC(=O)N(C)c1ccccc1)c1c(N)n(CCCC)c(=O)[nH]c1=O	7.04%
O=C(NC(CO)Cc1ccccc1)c1ccccc1 (stereo not shown)	-10.5%
COc1ccc(/C=C/C(=O)Nc2ccccc2C(F)(F)F)cc1	7.8%
Cc1cccc(C)c1OC(=O)CSc1nnc(-c2ccccc2O)o1	0.915%
O=Cc1ccc(O)c(O)c1	15.1%
CCCN1Cc2cccc(C(=O)NCc3cccs3)c2C1=O	-18.2%
O=C(CCCn1c(=O)c2ccccc2n(Cc2ccccc2)c1=O)NCc1ccco1	-7.47%
Cc1ncc(CN2CCC(n3nccc3NC(=O)c3ccccc3)CC2)s1	-19%
O=C1CCCCN1CCC(=O)N1CCCC(Nc2ccc(F)c(F)c2)C1 (stereo not shown)	3.89%
CCOc1cc2c(C)cc(=O)oc2cc1Cl	-10.7%
COc1ccc([N+](=O)[O-])cc1-c1nc2ccccc2nc1-c1ccccc1	6.31%
Cc1cc(=O)oc(C)c1C(=O)OCC(=O)c1ccc(Cl)cc1	-19.3%
COC(=O)c1cc2ccsc2n1CC(=O)N(C)c1ccccc1	-9.6%
Cc1ccc(NC(=O)CCC(=O)OCCCC(F)(F)C(F)(F)F)cc1	-7.94%
CC1=C(C(=O)Nc2cccc(C(=O)NC(C)C)c2)SCCO1	17.6%
O=C(CN1CCCC1)Nc1ccc(-c2nc3cc(NC(=O)CN4CCCC4)ccc3o2)cc1	10.9%
CCOC(=O)CNC(=O)CSc1nc2sc(C)c(C)c2c(=O)n1C	7.03%
COc1ccccc1OC(C)C(=O)Nc1ccc(S(=O)(=O)Nc2nccs2)cc1 (stereo not shown)	-29.2%

Structure (SMILES)	hERG current change (%, negative = inhibition) at 10uM
CCn1c(SCC(=O)Nc2ncc(C(F)(F)F)cc2Cl)nnc1-c1cccc(C)c1	-69.9%
COc1ccc(OCc2cccc(C(=O)O)c2)cc1	13.1%
Cc1cc(C(=O)N/N=C/c2ccc(O)c([N+](=O)[O-])c2)n[nH]1	-7%
O=C(CCNC(=O)Cn1ccc2ccccc2c1=O)NCc1ccc(F)cc1Cl	10.7%
O=C(Cc1cccc2ccccc12)NN1C(=O)C2C(C1=O)C1C=CC2C12CC2 (stereo not shown)	-16.9%
COc1ccc(/C=C2\C(=N)N3N=C(CC(=O)N4CCOCC4)SC3=NC2=O)cc1	13%
O=C(OCC(=O)C12CC3CC(CC(C3)C1)C2)c1cccnc1	-1.49%
CCc1ccc2c(CN3CCc4cc(OC)c(OC)cc4C3)cc(=O)oc2c1	-66%
COc1ccc(/C=N/OCC(=O)Nc2ccc3c(c2)OCO3)c(OC)c1	-11%
COc1cccc(CNc2ccc3c(c2)nc(C)n3C)c1OC	-9.08%
O=C(NCCn1cccn1)C1CCC(=O)N(CC2CCCCC2)C1 (stereo not shown)	10.7%
Cc1ccc(CN(CC(=O)N/N=C/c2ccccc2[N+](=O)[O-])S(=O)(=O)c2ccc(C)cc2)cc1	-1.83%
CC(C)CN(C(=O)C1CC1)c1c(N)n(Cc2ccccc2)c(=O)[nH]c1=O	21.2%
COc1ccccc1NC(=O)c1cc2ccccc2o1	25.9%
Cc1ccc(C(C)C)c(OCC(=O)NNC(=O)CC2OC(=O)c3ccccc32)c1 (stereo not shown)	-22.7%
O=C(O)Cc1csc(Nc2cccc(Cl)c2)n1	3.98%
O=C(c1ccc(OC2CCN(CCc3ccccc3)CC2)cc1)N1CCCC(CO)C1 (stereo not shown)	-12.4%
COc1ccc(NC(=O)C2CCCO2)cc1Cl (stereo not shown)	4.52%
C1CCCCCC(NCCN2CCNCC2)CCCCC1	12.1%
CCCc1cc(-c2nc(N)ncc2-c2ccc3c(c2)OCCCO3)c(O)cc1OC	-2.67%
Cc1ccc(NC(=O)COC(=O)COc2cccc3c2OC(C)(C)C3)c(C)c1	19.8%
CCOC(=O)N/N=C(/c1ccccc1)C1CCCCC1	15.1%
